In US9617324B2, “Ameliorating agent for blood-brain barrier dysfunction” (Nagasaki University, priority 2012, dated 2017):
Where two headings read alike, the source gives them in different places. Non-standard residues stand in square brackets, D forms with d. Residues, ends and D or L forms follow the SMILES beside them. No end group written: not given here. Nle = CCCC[C@H](N)C(=O)O; Nva = CCC[C@H](N)C(=O)O

System: model of retinal ischemia (retinal ischemic dysfunction)
Details: for activity / protective action on retinal ischemic dysfunction: peptides with the Peptide 9 sequence shifted or deleted (FIG. 2); for inhibitory effect on retinal ischemic dysfunction (ERG a-wave, b-wave): into vitreous body after 24 hours of ischemia, retinal potential after a week, 1 to 10 pmol

Row | Compound | activity in a model of retinal ischemia compared with P6 (mouse, in vivo) | further results
1 | ADNEVDEE | – | activity / protective action on retinal ischemic dysfunction: the activity declines
2 | NEVEEE [Peptide C, NEVEEE] | activity equal to or higher than that of P6 | –
3 | EVDEEEEEG [Peptide P9, reference compound] | – | concentration required to obtain an equal effect, fold higher than P30 and P6 (ERG, intravitreal after 24 hours of ischemia): about 6 fold; inhibitory effect on retinal ischemic dysfunction (ERG a-wave, b-wave): weaker
4 | Ac-NEVDEE-NH2 [Peptide F, N-acetyl-P6-amide] | activity equal to or higher than that of P6 | –
5 | NEVDEEEEE [P+1N/−1C, NEVDEEEEE] | – | activity / protective action on retinal ischemic dysfunction: high protective action on retinal ischemic dysfunction; activity / protective action on retinal ischemic dysfunction (listed as SEQ ID NO:30): higher protective action on retinal ischemic dysfunction than that of ProTα9
6 | Peptide S: P6 derivative peptide (EEVDEE) | activity equal to or higher than that of P6 | –
7 | NEVNEE [Peptide M] | activity equal to or higher than that of P6 | –
8 | NEVDEEE [P+1N/−3C, NEVDEEE] | – | activity / protective action on retinal ischemic dysfunction (listed as SEQ ID NO:13): activity equal to that of a peptide comprising the amino acid sequence shown in SEQ ID NO:1
9 | NEVDEE-NH2 [Peptide E, NEVDEE-NH2] | activity equal to or higher than that of P6 | –
10 | ADNEVDEEEEEGGEEEEEEEEGDGEEEDGD [Peptide P30, reference compound] | – | inhibitory effect on retinal ischemic dysfunction (ERG a-wave, b-wave): almost equal and excellent inhibitory effect on retinal ischemic dysfunction
11 | NEVDEQ [Peptide O] | activity equal to or higher than that of P6 | –
12 | NQVDEE [Peptide J] | activity equal to or higher than that of P6 | –
13 | NEVDEE [Peptide P6, NEVDEE] | – | dose showing the greatest protective effect (mouse, in vivo): 10 pmol/eye
14 | Peptide P: P6 derivative peptide (EEVNEE) | activity equal to or higher than that of P6 | –
15 | DNEVDEE [SEQ ID NO:12] | – | activity / protective action on retinal ischemic dysfunction: activity equal to that of a peptide comprising the amino acid sequence shown in SEQ ID NO:1
16 | CCCC[C@H](N)C(=O)N[C@@H](CCC(=O)O)C(=O)N[C@H](C(=O)N[C@@H](CC(=O)O)C(=O)N[C@@H](CCC(=O)O)C(=O)N[C@@H](CCC(=O)O)C(=O)O)C(C)C [Peptide I] (H-[Nle]EVDEE-OH) | activity equal to or higher than that of P6 | –
17 | NEVDQE [Peptide A, NEVDQE] | activity equal to or higher than that of P6 | –
18 | Ac-NEVDEE [Peptide G] | activity equal to or higher than that of P6 | –
19 | NEVDED [Peptide N] | activity equal to or higher than that of P6 | –
20 | DNEVDEEEE [P+2N/−2C, D NEVDEEEE] | – | activity / protective action on retinal ischemic dysfunction (listed as SEQ ID NO:31): higher protective action on retinal ischemic dysfunction than that of ProTα9
21 | NEVDE [P+1N/−5C] | – | activity / protective action on retinal ischemic dysfunction: the activity declined; activity / protective action on retinal ischemic dysfunction (listed as 5 amino acid peptide comprising amino acids from position 51 to 55): the activity declines
22 | NEVDQE-NH2 [Peptide U] | activity equal to or higher than that of P6 | –
23 | CCC[C@H](N)C(=O)N[C@@H](CCC(=O)O)C(=O)N[C@H](C(=O)N[C@@H](CC(=O)O)C(=O)N[C@@H](CCC(=O)O)C(=O)N[C@@H](CCC(=O)O)C(=O)O)C(C)C [Peptide H] (H-[Nva]EVDEE-OH) | activity equal to or higher than that of P6 | –
24 | pEEVNEE (not fully specified (residue 1); listed as Homo sapiens) [Peptide B] | – | activity in a model of retinal ischemia compared with P6 (P6 derivatives): activity equal to or higher than that of P6
25 | NELDEE [Peptide K] | activity equal to or higher than that of P6 | –
26 | pEEVDEE (not fully specified (residue 1); listed as Homo sapiens) [Peptide D] | – | activity in a model of retinal ischemia compared with P6 (P6 derivatives): activity equal to or higher than that of P6
27 | NEVNEE-NH2 [Peptide T] | activity equal to or higher than that of P6 | –
